# The supplement of paper PMC12632987
# The full ranking holds about 4,500 sequences; the median of “median log2 fold change of GCK-ALFA target abundance (FLAG IP / Myc IP barcode read proportion)” is about 0.078, and the lowest 2% start at about -0.6. The list shows a part of the results.
# B1: GBRAP_184_5031 (protein)
# chain: SVIERTIKADNLEELEAKLEKLKEEVKGSKADLIVTLDIKNPTEEMIKTALKRLGEMKKNGDVSSVTVGFARLLSEELIDVALKTADEEGVKVVLPISEE
# B2: GBRAP_160_4720 (protein)
# chain: KEKIKKFAEEALKELLKAVEDSEGLSKEEAEALFKGAAGEILMDAFEDPFFTDEMEDVVDEILDELVEELVENYDASLEEKKEIVKEKIKELEEKLLKLA
# B3: GBRAP_14_3885 (protein)
# chain: SEELEKLLAEALKEFAEAIAKLKAAGEEERAAAIEAELAARTAAAEAAGDLAALAKAAGEAAARAEAEVLLLVEGVSEAEAEAYRRTEIANFEYEVDELE
# B4: GBRAP_160_4126 (protein)
# chain: KEEDIKTLKDSAEDLEATLKEIDTLTPAQAAVLAEVTLYEAALDMDEQNGKFEDLEKAAVAAADTIRATAATDPAAAKATAKAQLTAAAKAFKDAAKKLE
# B5: GBRAP_160_4220 (protein)
# chain: DETIEKIVKIFREEFLEAVELIKGESEEERKVILDVAVGRVILEVDSLEEVTDEMEEVVDEKAEETAEELLKLKNASEEERKKLVEEKAKELEEELKKLA
# B6: GBRAP_184_5224 (protein)
# chain: KLLNRAVEAKTAEELIEKSEKVVKEAEKEGVELNLVVIAEDLSVEEVEKVAKHLKKLKDEGKIKDAILVVENPKSEEEIDRLVAIADKNGIKLVLALSEE
# B7: GBRAP_166_4904 (protein)
# chain: SLEEKIKELKKKIEELIEKYKEADEEERLELLIEIGELLRELKELGVPREELLALARRALEAAKEAGDSVRVAAGIIAEVADFDEEERDELDAIADEVAA
# B8: GBRAP_52_6095 (protein)
# chain: SMEKIEKYADEILKAALAGDVEKVTALLLEMVKELSDEEVLETLKLFAEKASELPDEELEKVTEVVIEALDKVAEETGKDELMDEAEAYLAAKAYEKLQK
# B9: GBRAP_52_5929 (protein)
# chain: MREEARELAERVLEAAEAGDEERLRELLREIVEELDDEEIELVIDELAELTIERGPEYYDLFADIMDLLEDEVEKAGRDVERVQYAIARAAGRMYDALQA
# B10: GBRAP_53_6403 (protein)
# chain: AAARIAALKAEARALTDAAAAADDATRAALVAEIGAILAELKAAGMPDEEIEALAREIAERLRAAGAPDSHLVALAQTLAELGLDEATAAVGELLVEDLE
# B11: GBRAP_184_5144 (protein)
# chain: KVLRVYIEAKTVEEAIKQAKKAFEEAKAAGAKLSLFVELENATVEEVRELAEELKKLVEEYGLKDAQVTLVVEADEEEADKIIEEAEKEGIRVVVALEEE
# B12: GBRAP_160_4554 (protein)
# chain: SAEQEKAIKDAEEERDFVLEVVEEESNEEARIVAIGEFGSFLMEVFLSGKFSDELEDKLGEIDDELERELEEAVDGSKEEVREVIERHFDEAIELLKESE
# B13: GBRAP_184_5293 (protein)
# chain: KVVEVVIEAETEEEAIKQLKKAAEEAKKKGVKLKIYLYLKNVSVEGFKKIAELLKKLKEEGIIESATVHILDERSEEELDKLVEIADKAGVKLVVALSDE
# B14: GBRAP_128_3243 (protein)
# chain: SQEELLAEAKELIDKIVKADVEEARELTRELLELMKELDDEARDEVADYFIEKLKKLSAEKLEAVADVLRERRPELDPYTAALVAGVEIEALELAEEQEE
# B15: GBRAP_153_3950 (protein)
# chain: MEEEKKLLEEAKKLIKQIKKTGGDPELIKKFAELFTKLNEESRKELFKELESLPEELQKLIVKTLIKEAGVSPEEIIEYIVGTSEEFEAAVLEAIVEASK
# B16: GBRAP_95_7044 (protein)
# chain: DDLVLAAESDAEVLETAVDLGDEEAARRAALRLLELLLELPEDKVKLSLSVESVKVIIEVAKENFDKETAIEALEKLAKFLTDEEAKKVVEEAIKELKKE
# B17: GBRAP_160_4326 (protein)
# chain: SERVEKLKKEVEEEFEELKEMIEGESIEQRIVLFRGTFGEILMLLSEDESVSDELLDKVREIEDEAVKTLEENPDLTEEEIKELIDEAEEKVLKAIEELA
# B18: GBRAP_186_5395 (protein)
# chain: EIDEEEEDKILKELEEKYDIVIVVYLDSKKSLEEKIKIMENDTEAAEALAEETGKKVALVFRAVDDEENLKKLKEHVEKLNKEAEEKSGVKVELIGHKKK
# B19: GBRAP_184_5301 (protein)
# chain: KVKNVFVEADTAEEAIAQIEKLAKEAKEAGVKLNIYLELKNISIEGFKEIAEKLKELKEAGIIEDATIEILDDLSEEEIDERIKIADEAGVKLVVALSDE
# Molecular target: GABARAP, O95166
# Experiment: median log2 fold change of GCK-ALFA target abundance (FLAG IP / Myc IP barcode read proportion) (log2 ratio); each designed protein is fused to an ALFA-tag nanobody in HEK293 cells to bring the named protein to FLAG-tagged glucokinase (GCK); Myc marks an untargeted standard; higher = target protein stabilised (more abundant)
# Details: target protein: 3xFLAG-MCP-GCK-ALFA reporter; HEK293 landing pad (RPLP)
# Summary of the method: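 Sequencing of reverse-transcribed, amplified circular RNA barcodes from anti-FLAG and anti-Myc immunoprecipitates provided the readout for an ALFA-nanobody-fused binder library recombined into HEK293 landing-pad cells. Those cells were induced with 2 μg mL^−1 doxycycline, transfected with a plasmid expressing a FLAG-tagged target and a Myc-tagged standard, and lysed after 48 h. Target abundance is the per-binder median log2 ratio of FLAG to Myc barcode read proportions. Only barcodes at a proportion of ≥10^−7 in both replicates and binders with ≥3 barcodes per replicate were kept, with a 10^−6 pseudocount added before the two replicates were pooled.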
# Sequence of GABARAP, O95166 (O95166 whole entry, the tested form may be a part): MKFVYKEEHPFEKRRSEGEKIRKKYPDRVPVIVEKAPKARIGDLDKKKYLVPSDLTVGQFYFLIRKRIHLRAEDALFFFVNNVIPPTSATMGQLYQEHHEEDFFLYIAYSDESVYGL
row,Binder,median log2 fold change
1,B1,0.0419
2,B2,-0.317
3,B3,0.266
4,B4,0.22
5,B5,-0.299
6,B6,0.154
7,B7,0.692
8,B8,0.276
9,B9,-0.453
10,B10,0.221
11,B11,0.112
12,B12,-0.237
13,B13,0.275
14,B14,0.147
15,B15,0.381
16,B16,0.287
17,B17,0.00433
18,B18,-0.133
19,B19,-0.0228
